Lines with a small IC50 respond at low doses; a limit (>, <) means that the fit lies beyond the doses tested. AUC is the area under the same curve over the 256-fold range up to the top dose, as a fraction; it is 1 without any effect and falls as sensitivity rises. An inferred top dose was derived from the fitted curves, not read from the paper. An entry number marks a drug with two screens in the source, which often give different values.
compound: NC(=O)[C@@H](CCC(F)(F)F)N(Cc1ccc(-c2ncon2)cc1F)S(=O)(=O)c1ccc(Cl)cc1 [BMS-708163]; test: Viability of human cancer cell lines after 72 h of drug (GDSC screen); details: screen: GDSC drug entry 205; top dose inferred
Description: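 Human cancer cell lines in 384-well plates, medium with 10% serum, drug for 72 h over a 256-fold dose range (nine 2-fold or five 4-fold steps up to the top dose). Adherent lines were fixed and stained with the nucleic acid dye Syto60, suspension lines read with resazurin; signal relative to control wells, capped at 0 and 100%. One two-parameter sigmoid per drug and line, fitted in a mixed model over all curves with the slope shared within a line.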

In order of rising AUC:
1. CCRF-CEM (lymphoblastic leukaemia, suspension, top dose 10.24 µM)  0.911
2. CMK (acute myeloid leukaemia, suspension, top dose 10.24 µM)  0.913
3. CAL-120 (breast, adherent, top dose 10.24 µM)  0.94
4. CAS-1 (glioma, adherent, top dose 10.24 µM)  0.956
5. CHP-126 (neuroblastoma, suspension, top dose 10.24 µM)  0.966
6. CHSA8926 (chondrosarcoma, adherent, top dose 10.24 µM)  0.972
7. CESS (acute myeloid leukaemia, suspension, top dose 10.24 µM)  0.975
8. CGTH-W-1 (thyroid, adherent, top dose 10.24 µM)  0.975
9. CHSA0108 (chondrosarcoma, adherent, top dose 10.24 µM)  0.975
10. CHSA0011 (chondrosarcoma, adherent, top dose 10.24 µM)  0.976
11. CHP-134 (neuroblastoma, suspension, top dose 10.24 µM)  0.977
12. CHP-212 (neuroblastoma, adherent, top dose 10.24 µM)  0.979
13. CAL-85-1 (breast, adherent, top dose 10.24 µM)  0.98
14. CAL-29 (bladder, adherent, top dose 10.24 µM)  0.984
15. CAL-72 (osteosarcoma, adherent, top dose 10.24 µM)  0.984
16. CAMA-1 (breast, adherent, top dose 10.24 µM)  0.984
17. CFPAC-1 (pancreas, adherent, top dose 10.24 µM)  0.984
18. CAL-54 (kidney, adherent, top dose 10.24 µM)  0.985
19. CAL-33 (head and neck, adherent, top dose 10.24 µM)  0.986
20. CAL-39 (cervix, adherent, top dose 10.24 µM)  0.986
21. CAL-78 (chondrosarcoma, adherent, top dose 10.24 µM)  0.986
22. CHL-1 (melanoma, adherent, top dose 10.24 µM)  0.986
23. CAPAN-1 (pancreas, adherent, top dose 10.24 µM)  0.987
24. CCK-81 (large intestine, adherent, top dose 2.56 µM)  0.987
25. CL-11 (large intestine, adherent, top dose 10.24 µM)  0.987
26. CAL-62 (thyroid, adherent, top dose 10.24 µM)  0.988
27. CCF-STTG1 (glioma, adherent, top dose 10.24 µM)  0.988
28. CAL-148 (breast, suspension, top dose 10.24 µM)  0.989
29. CAL-51 (breast, adherent, top dose 10.24 µM)  0.99

“CAL-29 (bladder, adherent, top dose 10.24 µM)” and “CAL-33 (head and neck, adherent, top dose 10.24 µM)” cannot be ordered by IC50: over 10.2 µM for the first, over 10.2 µM for the second.

“CAL-39 (cervix, adherent, top dose 10.24 µM)” and “CAL-51 (breast, adherent, top dose 10.24 µM)” cannot be ordered by IC50: over 10.2 µM for the first, over 10.2 µM for the second.

“CAL-54 (kidney, adherent, top dose 10.24 µM)” and “CAL-62 (thyroid, adherent, top dose 10.24 µM)” cannot be ordered by IC50: over 10.2 µM for the first, over 10.2 µM for the second.

“CAL-72 (osteosarcoma, adherent, top dose 10.24 µM)” and “CAL-78 (chondrosarcoma, adherent, top dose 10.24 µM)” cannot be ordered by IC50: over 10.2 µM for the first, over 10.2 µM for the second.

“CAL-85-1 (breast, adherent, top dose 10.24 µM)” and “CAL-120 (breast, adherent, top dose 10.24 µM)” cannot be ordered by IC50: over 10.2 µM for the first, over 10.2 µM for the second.

“CAL-148 (breast, suspension, top dose 10.24 µM)” and “CAMA-1 (breast, adherent, top dose 10.24 µM)” cannot be ordered by IC50: over 10.2 µM for the first, over 10.2 µM for the second.

“CAPAN-1 (pancreas, adherent, top dose 10.24 µM)” and “CAS-1 (glioma, adherent, top dose 10.24 µM)” cannot be ordered by IC50: over 10.2 µM for the first, over 10.2 µM for the second.

“CCF-STTG1 (glioma, adherent, top dose 10.24 µM)” and “CCK-81 (large intestine, adherent, top dose 2.56 µM)” cannot be ordered by IC50: over 10.2 µM for the first, over 2.56 µM for the second.

“CCRF-CEM (lymphoblastic leukaemia, suspension, top dose 10.24 µM)” and “CESS (acute myeloid leukaemia, suspension, top dose 10.24 µM)” cannot be ordered by IC50: over 10.2 µM for the first, over 10.2 µM for the second.

“CFPAC-1 (pancreas, adherent, top dose 10.24 µM)” and “CGTH-W-1 (thyroid, adherent, top dose 10.24 µM)” cannot be ordered by IC50: over 10.2 µM for the first, over 10.2 µM for the second.

“CHL-1 (melanoma, adherent, top dose 10.24 µM)” and “CHP-126 (neuroblastoma, suspension, top dose 10.24 µM)” cannot be ordered by IC50: over 10.2 µM for the first, over 10.2 µM for the second.

“CHP-134 (neuroblastoma, suspension, top dose 10.24 µM)” and “CHP-212 (neuroblastoma, adherent, top dose 10.24 µM)” cannot be ordered by IC50: over 10.2 µM for the first, over 10.2 µM for the second.

“CHSA0011 (chondrosarcoma, adherent, top dose 10.24 µM)” and “CHSA0108 (chondrosarcoma, adherent, top dose 10.24 µM)” cannot be ordered by IC50: over 10.2 µM for the first, over 10.2 µM for the second.

“CHSA8926 (chondrosarcoma, adherent, top dose 10.24 µM)” and “CL-11 (large intestine, adherent, top dose 10.24 µM)” cannot be ordered by IC50: over 10.2 µM for the first, over 10.2 µM for the second.

In the case of “CMK (acute myeloid leukaemia, suspension, top dose 10.24 µM)”, the IC50 is reported as over 10.2 µM.

same assay, conditions: top dose 5 µM; screen: GDSC drug entry 1072; top dose inferred

In order of falling AUC:
1. CML-T1 (chronic myeloid leukaemia, suspension)  0.989
2. CL-34 (large intestine, adherent)  0.968
3. CFPAC-1 (pancreas, adherent)  0.926
4. CL-40 (large intestine, adherent)  0.894

CFPAC-1 (pancreas, adherent) and CL-34 (large intestine, adherent) cannot be ordered by IC50: over 5 µM for the first, over 5 µM for the second.

CL-40 (large intestine, adherent) and “CML-T1 (chronic myeloid leukaemia, suspension)” cannot be ordered by IC50: over 5 µM for the first, over 5 µM for the second.

Reference: the supplement of paper PMC4967469
